Over roughly 33,000 sequences, “E-score (-0.5 to 0.5)” has its median near -0.013; the highest 2% begin near 0.3. The list shows a part of the results.
target: T1, Msn1 (UniProt P22148); experiment: PBM E-score (8-mer binding enrichment) (E-score (-0.5 to 0.5)); higher = stronger / more preferred TF binding; most listed sequences are background and not binding sites; details: protein concentration: 200 nM; construct: GST-full length
T1 sequence: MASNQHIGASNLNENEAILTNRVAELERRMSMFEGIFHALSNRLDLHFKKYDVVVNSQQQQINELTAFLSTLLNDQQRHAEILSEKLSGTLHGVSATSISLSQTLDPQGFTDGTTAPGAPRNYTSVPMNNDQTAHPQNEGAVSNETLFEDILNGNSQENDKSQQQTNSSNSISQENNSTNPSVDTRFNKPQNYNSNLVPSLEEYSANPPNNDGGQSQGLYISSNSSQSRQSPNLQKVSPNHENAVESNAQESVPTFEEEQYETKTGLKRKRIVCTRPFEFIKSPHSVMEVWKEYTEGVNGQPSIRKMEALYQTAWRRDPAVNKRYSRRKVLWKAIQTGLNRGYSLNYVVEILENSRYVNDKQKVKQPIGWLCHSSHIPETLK
Procedure, shortened: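 Bound GST-tagged yeast transcription factors, applied at about 100-200 nM to double-stranded universal all-10-mer Agilent arrays, were detected with fluorescent anti-GST. Scans were normalised with masliner. A modified Wilcoxon-Mann-Whitney statistic, the E-score, was assigned to each ungapped eight-base word pooled with its reverse complement by the Universal PBM Analysis Suite.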

First: AGCCACTC
Second: CGAAAAAA
The “PBM E-score” value of the first is lower: -0.15 for the first, 0.138 for the second.

Compared with ACGCTGCG, CTTACCTC is higher in “PBM E-score” value: -0.258 for the first, -0.0517 for the second.

Compared with ATCCCAGC, AGTCAAGA is higher in “PBM E-score” value: -0.0949 for the first, 0.0713 for the second.

First: AAGGTGAA
Second: GTAGAAAC
The “PBM E-score” value of the first is lower: 0.00642 for the first, 0.0458 for the second.

First: AAAATTTT
Second: ATTTGCTA
The “PBM E-score” value of the first is lower: 0.198 for the first, 0.215 for the second.

First: AACCGTAG
Second: AAAGTTCG
The “PBM E-score” value of the first is lower: -0.184 for the first, 0.187 for the second.

First: CGAACCAA
Second: GGACTTAA
The “PBM E-score” value of the first is lower: 0.0114 for the first, 0.219 for the second.

Going from CCCGCGAG to AAAATCAC, the “PBM E-score” value rises from -0.0558 to 0.0304.

Compared with CAGTTCCA, CACACTGC is higher in “PBM E-score” value: -0.104 for the first, -0.103 for the second.

Compared with AGTCCTAT, CGCTCAAG is lower in “PBM E-score” value: 0.201 for the first, 0.00687 for the second.

Compared with TCCCAACA, CCTCAACA is higher in “PBM E-score” value: 0.0539 for the first, 0.076 for the second.

First: ACCCAGTC
Second: CGAAGCAA
The “PBM E-score” value of the first is lower: -0.129 for the first, 0.182 for the second.

Going from GTATTTTA to AGGTGTGG, the “PBM E-score” value falls from -0.00365 to -0.144.

Going from ACCTGTGA to GTCTAGGA, the “PBM E-score” value falls from 0.0752 to 0.0657.

Going from AGATGGCG to ATCATTCG, the “PBM E-score” value rises from -0.00752 to 0.104.

Going from TACCAGCA to CACCATAA, the “PBM E-score” value falls from 0.00785 to -0.0553.

First: GGGAGCAC
Second: ATCGCGAG
The “PBM E-score” value of the first is lower: -0.276 for the first, 0.0782 for the second.

First: AGTAGCAG
Second: GAAGTTAC
The “PBM E-score” value of the first is lower: -0.0373 for the first, 0.0622 for the second.

Going from CCAATACA to GATTGTAC, the “PBM E-score” value falls from 0.0713 to 0.0546.

Compared with ATAAGTCA, TCTGAGAA is lower in “PBM E-score” value: 0.239 for the first, 0.169 for the second.

Going from ACTTATAA to CAAGCCCG, the “PBM E-score” value falls from 0.333 to -0.0308.

Going from ATAAAGAG to AAACGTGT, the “PBM E-score” value rises from -0.072 to 0.0538.

First: GACGGCCA
Second: GCGCCGTA
The “PBM E-score” value of the first is lower: -0.0578 for the first, 0.188 for the second.

Compared with CACTGATG, TCATGAGA is higher in “PBM E-score” value: -0.091 for the first, 0.0439 for the second.

Compared with CAAAGGAG, CATGACGA is higher in “PBM E-score” value: -0.184 for the first, 0.033 for the second.

First: ACGGTACA
Second: ATCCCGTC
The “PBM E-score” value of the first is higher: 0.172 for the first, -0.0856 for the second.

Compared with CAGTCCTC, AAGGGGGT is lower in “PBM E-score” value: -0.254 for the first, -0.315 for the second.

Compared with AATGGTCG, CAAGCCGC is lower in “PBM E-score” value: -0.0526 for the first, -0.155 for the second.

Compared with CCCTGCCC, ATTGCATG is higher in “PBM E-score” value: -0.252 for the first, 0.189 for the second.

Compared with GCTTTGTA, ACTTTGAG is lower in “PBM E-score” value: 0.25 for the first, -0.06 for the second.

Compared with AGTAAATG, AACGATCC is lower in “PBM E-score” value: 0.168 for the first, -0.165 for the second.

Compared with CCTTTTAA, CTGCGATA is lower in “PBM E-score” value: 0.0291 for the first, 0.0274 for the second.

Going from AAGAGCCA to GACACATC, the “PBM E-score” value rises from 0.137 to 0.23.

First: GACACTCC
Second: CCAGGAGC
The “PBM E-score” value of the first is higher: 0.146 for the first, -0.237 for the second.

First: ATCCAATG
Second: CTCATGGA
The “PBM E-score” value of the first is lower: -0.191 for the first, -0.0407 for the second.

Compared with GGGATGTA, AAGAGACC is lower in “PBM E-score” value: -0.0101 for the first, -0.0422 for the second.

First: GGGGAAAC
Second: GTATTGAC
The “PBM E-score” value of the first is higher: -0.0205 for the first, -0.0493 for the second.

Compared with ACGACCGA, TAGAGGCA is lower in “PBM E-score” value: 0.0849 for the first, -0.144 for the second.

Going from GTTTCTCA to AACTGGTG, the “PBM E-score” value falls from 0.0621 to -0.265.

First: CACCATCA
Second: AAGCTGGA
The “PBM E-score” value of the first is lower: -0.185 for the first, -0.118 for the second.

Going from CAATCGAA to CAAGCCCA, the “PBM E-score” value falls from 0.041 to -0.195.

Compared with GATATAGC, TAAAGGGA is higher in “PBM E-score” value: -0.131 for the first, 0.128 for the second.

First: AGATACGG
Second: AAGTCCGA
The “PBM E-score” value of the first is lower: 0.0733 for the first, 0.149 for the second.

Compared with ATAGCGAG, GACAGGGC is lower in “PBM E-score” value: -0.0338 for the first, -0.0682 for the second.

First: GACTGGGA
Second: ACTCAGCA
The “PBM E-score” value of the first is lower: -0.0971 for the first, -0.0495 for the second.

Going from AGGTCAAA to CTCGTCGC, the “PBM E-score” value falls from 0.0719 to -0.123.

Compared with CTCCCAAC, AAGAGTGA is higher in “PBM E-score” value: -0.225 for the first, 0.00243 for the second.

First: TCTCCAGA
Second: CTACCAAA
The “PBM E-score” value of the first is lower: -0.0895 for the first, -0.0795 for the second.

First: AGAACACT
Second: GCGTCATA
The “PBM E-score” value of the first is lower: -0.131 for the first, 0.171 for the second.

Going from ACCTGTGC to GGTTGCTA, the “PBM E-score” value falls from -0.069 to -0.14.

Compared with CGAGTGAG, GTCTTCGA is lower in “PBM E-score” value: 0.102 for the first, 0.0438 for the second.

Going from AGAAAGTC to ATAAATCG, the “PBM E-score” value falls from 0.222 to 0.112.

First: GAGTCGAC
Second: ACATAGTC
The “PBM E-score” value of the first is lower: 0.0439 for the first, 0.184 for the second.

Going from AACCCGCA to AGGCTTGG, the “PBM E-score” value rises from -0.0665 to -0.0597.

Going from CATACAAG to GGTCAGAA, the “PBM E-score” value rises from -0.0747 to -0.0609.

First: CCGGAAAC
Second: GGAATTAA
The “PBM E-score” value of the first is lower: 0.011 for the first, 0.164 for the second.

Compared with CCATGAGC, ATGTGTTG is higher in “PBM E-score” value: -0.157 for the first, 0.0856 for the second.

Compared with CTCCGAAC, ACTCTCAG is lower in “PBM E-score” value: 0.201 for the first, -0.0391 for the second.

First: GACAAGCC
Second: CGTCGACA
The “PBM E-score” value of the first is higher: 0.318 for the first, 0.00562 for the second.

First: ACCCTGCT
Second: ACGTATGG
The “PBM E-score” value of the first is lower: -0.311 for the first, 0.0875 for the second.

First: ACTTCAAG
Second: ACTGTCTA
The “PBM E-score” value of the first is higher: 0.121 for the first, 0.022 for the second.

Going from AGGGCAAG to ATACGATG, the “PBM E-score” value rises from -0.0963 to 0.0261.

First: GCTTCGCA
Second: AACAGGGG
The “PBM E-score” value of the first is higher: -0.179 for the first, -0.364 for the second.

Compared with GAGCGAGC, ATGAACAC is higher in “PBM E-score” value: -0.0136 for the first, 0.112 for the second.

First: ACGAAAAT
Second: GCAAAGAA
The “PBM E-score” value of the first is higher: 0.177 for the first, -0.0403 for the second.

Compared with AAAAATTT, CACAGCCC is lower in “PBM E-score” value: 0.219 for the first, -0.18 for the second.

Compared with GTGAAGGA, CAAACCGA is higher in “PBM E-score” value: 0.0132 for the first, 0.042 for the second.

Going from ACAATAGG to ACCAGAGG, the “PBM E-score” value falls from 0.0391 to -0.249.

First: AATGCATA
Second: AATAAAGA
The “PBM E-score” value of the first is lower: 0.00118 for the first, 0.179 for the second.

Compared with AGCGGTAA, AGTTAGCA is higher in “PBM E-score” value: -0.0367 for the first, 0.0245 for the second.

First: ACTATACG
Second: ATAGGCAC
The “PBM E-score” value of the first is higher: 0.00349 for the first, -0.219 for the second.

First: ATCGTGGG
Second: AGCCCGAT
The “PBM E-score” value of the first is lower: 0.0926 for the first, 0.132 for the second.

Going from TGTCCCAA to ATAGTCTG, the “PBM E-score” value falls from 0.463 to 0.157.

Compared with CGTATCTC, AGTGCGAG is higher in “PBM E-score” value: -0.159 for the first, -0.103 for the second.

First: AGAGGCCA
Second: GACTCCTC
The “PBM E-score” value of the first is lower: -0.216 for the first, -0.149 for the second.

Going from TCGTCTAA to CCGGGATC, the “PBM E-score” value rises from -0.0666 to 0.0583.

Compared with CTAAAAAA, ATGCAAAT is lower in “PBM E-score” value: 0.154 for the first, 0.00702 for the second.

Compared with ATGAGTGC, GATTTTAA is higher in “PBM E-score” value: -0.0848 for the first, 0.139 for the second.

Going from ACAACAGG to AACCATCA, the “PBM E-score” value rises from -0.0002 to 0.0325.

Going from ATTCATAC to AGTACTAC, the “PBM E-score” value rises from 0.129 to 0.233.

Going from GCTCTACA to GGCTGGCA, the “PBM E-score” value falls from -0.122 to -0.274.

Compared with AGAGAAGC, AAAATCAG is higher in “PBM E-score” value: -0.0783 for the first, 0.217 for the second.

First: ATGGATTG
Second: CTCTTATC
The “PBM E-score” value of the first is lower: 0.016 for the first, 0.229 for the second.

Compared with CTTATCAA, CAAGGTAA is lower in “PBM E-score” value: 0.129 for the first, -0.0377 for the second.

First: ATATTCAT
Second: CATACCGG
The “PBM E-score” value of the first is higher: 0.133 for the first, 0.0489 for the second.

First: CCATCTCG
Second: CTGGTGTA
The “PBM E-score” value of the first is higher: -0.0854 for the first, -0.193 for the second.

From the supplement of paper PMC3334620
